{"source": "paper PMC4336329", "about": "(PLoS ONE, 2015)", "note": "In all, about 310,000 compounds went through this assay and about 14,000 (4.5%) showed an effect of 50% or more. The effect is printed as a negative number. The list shows a part of the results."}
{"molecular_target": "human ether-à-go-go-related gene (hERG) potassium channel (human, UniProt Q12809)", "sequence (Q12809 whole entry, looked up)": "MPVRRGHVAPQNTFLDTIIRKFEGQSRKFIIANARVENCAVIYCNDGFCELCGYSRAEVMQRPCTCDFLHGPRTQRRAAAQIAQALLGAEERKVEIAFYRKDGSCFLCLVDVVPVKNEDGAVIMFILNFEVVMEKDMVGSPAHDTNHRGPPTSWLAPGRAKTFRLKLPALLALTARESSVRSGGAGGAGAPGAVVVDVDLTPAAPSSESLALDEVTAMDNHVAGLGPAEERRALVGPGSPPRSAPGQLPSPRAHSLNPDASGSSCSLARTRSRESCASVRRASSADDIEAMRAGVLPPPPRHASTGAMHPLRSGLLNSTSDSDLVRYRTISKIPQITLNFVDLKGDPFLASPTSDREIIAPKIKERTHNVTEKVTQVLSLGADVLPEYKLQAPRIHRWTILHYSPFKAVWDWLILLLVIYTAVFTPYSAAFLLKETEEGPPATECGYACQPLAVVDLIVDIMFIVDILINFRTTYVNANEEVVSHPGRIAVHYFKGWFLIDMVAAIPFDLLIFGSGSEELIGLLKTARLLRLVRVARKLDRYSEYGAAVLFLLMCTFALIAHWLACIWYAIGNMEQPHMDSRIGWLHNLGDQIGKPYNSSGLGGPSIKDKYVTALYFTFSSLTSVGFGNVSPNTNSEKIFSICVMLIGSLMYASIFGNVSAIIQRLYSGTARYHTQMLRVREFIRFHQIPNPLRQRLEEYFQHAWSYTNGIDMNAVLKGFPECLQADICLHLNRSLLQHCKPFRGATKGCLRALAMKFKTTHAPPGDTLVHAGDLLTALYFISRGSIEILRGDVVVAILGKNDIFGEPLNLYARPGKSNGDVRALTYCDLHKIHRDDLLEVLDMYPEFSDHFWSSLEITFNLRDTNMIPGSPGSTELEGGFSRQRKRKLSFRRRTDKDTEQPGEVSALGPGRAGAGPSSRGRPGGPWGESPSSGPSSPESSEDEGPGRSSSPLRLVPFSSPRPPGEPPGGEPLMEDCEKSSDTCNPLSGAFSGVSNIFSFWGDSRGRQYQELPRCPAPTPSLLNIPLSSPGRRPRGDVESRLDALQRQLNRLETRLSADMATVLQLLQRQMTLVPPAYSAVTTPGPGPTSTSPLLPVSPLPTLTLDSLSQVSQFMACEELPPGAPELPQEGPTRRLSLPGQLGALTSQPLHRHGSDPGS", "assay": "primary screen, population patch clamp on CHO cells stably expressing hERG", "units": {"hERG current change (%, negative = inhibition) at 10uM": "%"}}
{"compound": "CC(OC(=O)c1nsc(Cl)c1Cl)C(=O)NCc1ccco1", "note": "(stereo not drawn);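 further: peak tail current of the secondary pulse compared with the same well before compound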", "hERG current change (%, negative = inhibition) at 10uM": 14}
{"compound": "Cc1ccc(SC(C)C(=O)NCCC2=CCCCC2)cc1", "note": "(stereo not drawn)", "hERG current change (%, negative = inhibition) at 10uM": -26.9}
{"compound": "COc1ccc2nc(Cl)c(C3CC(c4ccco4)=NN3C(=O)CCCC(=O)O)cc2c1", "note": "(stereo not drawn)", "hERG current change (%, negative = inhibition) at 10uM": 7.6}
{"compound": "O=C(CSc1nc2ccccc2o1)N1CCN(c2ccccc2)CC1", "hERG current change (%, negative = inhibition) at 10uM": 17.2}
{"compound": "CCOP(=O)(c1ccccc1Cl)C1(O)CCCCC1", "note": "(stereo not drawn)", "hERG current change (%, negative = inhibition) at 10uM": -3.31}
{"compound": "Cc1cc(N/N=C/c2ccc(O)cc2)c2cccc(C)c2n1", "hERG current change (%, negative = inhibition) at 10uM": -51.6}
{"compound": "CC(=O)N(C)Cc1ccc(C(=O)CSc2nnc(C3CC3)n2C2CC2)cc1", "hERG current change (%, negative = inhibition) at 10uM": -8}
{"compound": "N#CC1(NC(=O)COC(=O)/C=C/c2ccc3ccccc3n2)CCCCC1", "hERG current change (%, negative = inhibition) at 10uM": 14.7}
{"compound": "COc1ccc(OC)c(NC(=O)CSc2nc3ccccc3c(=O)n2CC2CCCO2)c1", "note": "(stereo not drawn)", "hERG current change (%, negative = inhibition) at 10uM": -41.2}
{"compound": "COc1ccccc1NC(=O)c1ccc(Br)o1", "hERG current change (%, negative = inhibition) at 10uM": -6.16}
{"compound": "Cc1c(C(=O)NCCN2CCOC2=O)oc2c(F)cccc12", "hERG current change (%, negative = inhibition) at 10uM": 11.8}
{"compound": "COc1cc(C(C[N+](=O)[O-])c2c(N)n(C)c(=O)n(C)c2=O)ccc1O", "note": "(stereo not drawn)", "hERG current change (%, negative = inhibition) at 10uM": 8.05}
{"compound": "Cc1ccccc1NS(=O)(=O)c1cc(C(=O)N2CCCC2)ccc1Cl", "hERG current change (%, negative = inhibition) at 10uM": 1.08}
{"compound": "CN(C)C1(CNC(=S)Nc2ccccc2C(F)(F)F)CCCCC1", "hERG current change (%, negative = inhibition) at 10uM": -19.2}
{"compound": "Cc1cc(CNCc2cn(C)nc2-c2ccc(Oc3ccccc3)cc2)on1", "hERG current change (%, negative = inhibition) at 10uM": -14}
{"compound": "CCn1cc(SCC(=O)N2CCc3ccccc32)c2ccccc21", "hERG current change (%, negative = inhibition) at 10uM": -1.74}
{"compound": "COc1ccc(/C=C2\\SC(=S)N(CC(=O)OCC(=O)Nc3cc(Cl)cc(Cl)c3)C2=O)cc1", "hERG current change (%, negative = inhibition) at 10uM": 2.69}
{"compound": "CCOc1ccc(N2C(=O)c3ccccc3NC2(C)CC)cc1", "note": "(stereo not drawn)", "hERG current change (%, negative = inhibition) at 10uM": 4.89}
{"compound": "COC(=O)c1ccccc1NC(=O)CSc1nnnn1-c1ccc(C)cc1C", "hERG current change (%, negative = inhibition) at 10uM": 10.3}
{"compound": "O=C(COc1ccc(/C=C2/NC(=O)NC2=O)cc1)Nc1ccc(F)cc1", "hERG current change (%, negative = inhibition) at 10uM": 22.6}
{"compound": "O=C(CN1CCN(Cc2ccccc2)CC1)N/N=C\\C=C/c1ccco1", "hERG current change (%, negative = inhibition) at 10uM": -26.9}
{"compound": "COc1ccc(C2=NN(CN3C(=O)C(=O)c4ccccc43)C(c3cccc([N+](=O)[O-])c3)C2)cc1", "note": "(stereo not drawn)", "hERG current change (%, negative = inhibition) at 10uM": 5.67}
{"compound": "Nc1nc2ccccc2n1/N=C/c1cccnc1", "hERG current change (%, negative = inhibition) at 10uM": 2.44}
{"compound": "CC1=C(C(=O)Nc2ccccn2)C(c2ccc(Cl)cc2Cl)NC(=S)N1", "note": "(stereo not drawn)", "hERG current change (%, negative = inhibition) at 10uM": -3.69}
{"compound": "COc1ccc2cc(C(C)C(=O)OC(C)C)ccc2c1", "note": "(stereo not drawn)", "hERG current change (%, negative = inhibition) at 10uM": 5}
{"compound": "CC(C)[C@H](NC(=O)c1ccccc1)C(=O)OCC(=O)Nc1ccc2c(c1)OCCO2", "hERG current change (%, negative = inhibition) at 10uM": -0.724}
{"compound": "CS(=O)(=O)c1ccc2nc(NC(=O)c3ccc(NS(=O)(=O)c4ccc(F)c(F)c4)cc3)sc2c1", "hERG current change (%, negative = inhibition) at 10uM": 16}
{"compound": "Cc1noc(C)c1-c1nc(CS(=O)(=O)c2ccc(F)cc2)no1", "hERG current change (%, negative = inhibition) at 10uM": 8.83}
{"compound": "CCOc1ccccc1C(=O)N1CCC(n2nnc3cc(C(F)(F)F)ccc32)CC1", "hERG current change (%, negative = inhibition) at 10uM": -60}
{"compound": "Cc1ccc(S(=O)(=O)NCC(=O)OC(C(=O)c2ccccc2)c2ccccc2)cc1", "note": "(stereo not drawn)", "hERG current change (%, negative = inhibition) at 10uM": 3.13}
{"compound": "S=C(NCc1ccccc1)Nc1cccc(Cl)c1", "hERG current change (%, negative = inhibition) at 10uM": -14.6}
{"compound": "COc1ccc(NC2CCN(C3CC(=O)N(c4ccc(F)c(Cl)c4)C3=O)CC2)cc1", "note": "(stereo not drawn)", "hERG current change (%, negative = inhibition) at 10uM": -54.8}
{"compound": "COc1cccc(N2CCN(C(=O)C3CCN(S(=O)(=O)c4cccs4)CC3)CC2)c1", "hERG current change (%, negative = inhibition) at 10uM": -7.28}
{"compound": "CN(C)CCN(C(=O)CCS(=O)(=O)c1ccccc1)c1nc2cc3c(cc2s1)OCO3.Cl", "hERG current change (%, negative = inhibition) at 10uM": 7.43}
{"compound": "c1ccc(-c2nnc(-c3ccco3)o2)cc1", "hERG current change (%, negative = inhibition) at 10uM": 0.407}
{"compound": "CC(O)CNc1nc2ccccc2n1CC(=O)NCCc1ccc(Cl)cc1", "note": "(stereo not drawn)", "hERG current change (%, negative = inhibition) at 10uM": -11.8}
{"compound": "CCN(CC(=O)NCc1ccc(Cl)cc1)C(=O)CSCC(=O)Nc1ccc(C)cc1", "hERG current change (%, negative = inhibition) at 10uM": -77.9}
{"compound": "O=C1C=C(c2cccc(CO)c2)C[C@@H](c2ccc(F)cc2)C1", "hERG current change (%, negative = inhibition) at 10uM": -45.3}
{"compound": "N#C/C(=C/c1ccc(C(=O)O)cc1)C(=O)NCc1ccccc1", "hERG current change (%, negative = inhibition) at 10uM": -6.97}
{"compound": "O=C(Oc1cccc(C(=S)N2CCCCC2)c1)c1ccccc1", "hERG current change (%, negative = inhibition) at 10uM": 19.1}
{"compound": "CCN(CC)CCn1c2ccccc2c2n[nH]c(=S)nc21", "hERG current change (%, negative = inhibition) at 10uM": -4.86}
{"compound": "CC1=C(C#N)C(c2cccnc2)C2=C(N1)c1ccccc1C2=O", "note": "(stereo not drawn)", "hERG current change (%, negative = inhibition) at 10uM": -4.63}
{"compound": "NS(=O)(=O)c1cccc(-n2cnnn2)c1", "hERG current change (%, negative = inhibition) at 10uM": -6.93}
{"compound": "Cn1c(-c2ccc(C(C)(C)C)cc2)n[nH]c1=S", "hERG current change (%, negative = inhibition) at 10uM": 19.2}
{"compound": "Cc1cccc(/C=N/NC(=O)c2cccc([N+](=O)[O-])c2)n1", "hERG current change (%, negative = inhibition) at 10uM": -1.15}
{"compound": "Nc1nc(SCc2nnc(SCC(=O)O)n2-c2ccccc2)nc2sc3c(c12)CCCC3", "hERG current change (%, negative = inhibition) at 10uM": -2.11}
{"compound": "CCOc1cccc(N2C(=O)CC(n3cnc4ccccc43)C2=O)c1", "note": "(stereo not drawn)", "hERG current change (%, negative = inhibition) at 10uM": 8.48}
{"compound": "COc1ccc(CCNC(=O)CCC(=O)Nc2nnc(C(C)C)s2)cc1OC", "hERG current change (%, negative = inhibition) at 10uM": 10.4}
{"compound": "Cc1cccc(C(=O)Nc2ccc(O)c3c(=O)cc(-c4ccccc4Cl)oc23)c1", "hERG current change (%, negative = inhibition) at 10uM": 0.883}
{"compound": "Cc1ccccc1Nc1nc(N)nc(COC(=O)c2ccccc2)n1", "hERG current change (%, negative = inhibition) at 10uM": 16.1}
{"compound": "COCCNC(=O)C1CC(c2ccc(C(F)(F)F)cc2)=NO1", "note": "(stereo not drawn)", "hERG current change (%, negative = inhibition) at 10uM": 1.35}
{"compound": "NC(=S)Nc1ccc2cn[nH]c2c1", "hERG current change (%, negative = inhibition) at 10uM": 1.7}
{"compound": "Cc1ccc(S(=O)(=O)Nc2nc(C)c(C)s2)cc1", "hERG current change (%, negative = inhibition) at 10uM": 1.65}
{"compound": "COc1ccc(S(=O)(=O)Nc2ccc3ccccc3c2)cc1C", "hERG current change (%, negative = inhibition) at 10uM": -8.79}
{"compound": "Fc1ccccc1CSc1nnc(-c2cccs2)o1", "hERG current change (%, negative = inhibition) at 10uM": -9.96}
{"compound": "COc1ccc(CCNS(=O)(=O)c2ccc3c(c2)CCN3C(=O)C2CC2)cc1OC", "hERG current change (%, negative = inhibition) at 10uM": 0.919}
{"compound": "N#Cc1nc(-c2ccco2)oc1NCc1cccnc1", "hERG current change (%, negative = inhibition) at 10uM": -10.3}
